In PubChem BioAssay AID282 (DTP/NCI, 2004):
Inconclusive results and toxic doses are left out. Some entries of the source have several records that differ or are many. The list is limited to them. An entry can have further records. Values given together are repeats across runs, samples, wells, individuals or studies.

Tested on: BDF1 mice, L1210 terephthalanilide-resistant leukemia ip, survival T/C
Assay: NCI In Vivo Anticancer Drug Screen. Data for tumor model L1210 Leukemia resistant to A Terephthalanilide; NSC 38280 (intraperitoneal) in B6D2F1 (BDF1) mice
Settings: endpoint: mean survival time, higher = longer survival
Procedure: The antitumor activity of compounds was measured in mice bearing transplantable tumors. Survival or tumor size were measured and the results are expressed as the measurement made in the treated group (T) divided by the measurement made in the vehicle treated control group (C). The tumor model used in this assay is L1210 Leukemia resistant to A Terephthalanilide; NSC 38280 (intraperitoneal) in B6D2F1 (BDF1) mice

[1] = dose: 100.0 mg/kg/injection, schedule: Q01DX010 (ip), vehicle: saline

O=C(Nc1ccc(NC2=NCCN2)cc1)c1ccc(C(=O)Nc2ccc(NC3=NCCN3)cc2)cc1
T/C (dose: 8.0 mg/kg/injection, schedule: Q01DX010 (ip), vehicle: saline): 111 % of control and 165 % of control

Cc1cc(N(CCCl)CCCl)ccc1N=Nc1ccccc1C(=O)O
T/C (dose: 3.12 mg/kg/injection, schedule: Q01DX Z (ip), vehicle: carboxymethylcellulose (CMC)): 119 % of control and 162 % of control

O=c1cnn(C2OC(CO)C(O)C2O)c(=O)[nH]1 (stereo not given)
T/C (dose: 400.0 mg/kg/injection, schedule: Q01DX010 (ip), vehicle: saline): 107 % of control, 154 % of control, 168 % of control

COc1cc(-c2ccc(Nc3ccccc3C(=O)O)c(OC)c2)ccc1Nc1ccccc1C(=O)O
T/C [1]: 92 % of control and 150 % of control

CN(C)/N=N/c1nc[nH]c1C(N)=O
T/C [1]: 109 % of control and 170 % of control
